# Experimental data as given in the supplement of paper PMC4723716.
# ± gives the uncertainty stated by the source. The full ranking holds about 9,900 compounds; the median of “viability index relative to DMSO control” is about 1, and the lowest 2% start at about 0.85. The list shows a part of the results.
# Tested on: Plasmodium falciparum NF54 stage V gametocytes
# Test: viability index relative to DMSO control (fraction); higher = less gametocyte killing
# Conditions: 2.5 µM, library set: Broad Institute DOS, incubation time: 72 h
# Summary of the method: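 Compound at 2.5 µM was incubated for 72 hr at 37°C under low oxygen with P. falciparum NF54 stage V gametocytes (0.75% gametocytemia, 1.25% hematocrit, 10 µl, serum-free screening medium) in 1,536-well plates. Staining used 3 µl of 2.5 µM MitoTracker Red CMXRos plus 0.13% saponin for one to two hours, and red particles of 20–70 µm2 were counted in one imaged field per well. Each viability index is that count relative to the plate mean of solvent-only wells.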
row,Structure (SMILES),viability index
1,CCc1cnc(N2[C@H](CO)[C@H](c3ccccc3-c3ccccc3C)[C@@H]2C#N)s1,1.12 ± 0.1
2,O=C1CCCCn2cc(nn2)COC[C@@H](Cc2ccccc2)N1,1.13 ± 0.074
3,COc1cccc(CNC(=O)[C@H]2[C@H](CO)[C@H]3Cn4c(ccc(C5=CCCC5)c4=O)[C@@H]2N3)c1,1.0533 ± 0.00074
4,CCS(=O)(=O)N1CC(=O)N2[C@H](CO)[C@@H](c3ccc(-c4cccc(F)c4)cc3)[C@@H]2C1,1.076 ± 0.0055
5,N#C[C@H]1[C@H](c2ccccc2-c2cccc(F)c2)[C@@H](CO)N1C(=O)NC1CCCCC1,1.03 ± 0.19
6,C[C@@H]1CN([C@H](C)CO)C(=O)c2cc(-c3ccncc3)cnc2O[C@H]1CN(C)C(=O)CN1CCOCC1,1.03 ± 0.054
7,C[C@H](CO)N1C[C@H](C)[C@H](CN(C)CC2CCCCC2)Oc2ccc(NS(=O)(=O)c3cccs3)cc2CC1=O,1.09 ± 0.025
8,O=C(C[C@H]1C[C@H]2c3cc(NC(=O)NC4CCCC4)ccc3O[C@H]2[C@H](CO)O1)NCc1ccccc1F,1.09 ± 0.089
9,O=C1CNC[C@H]2[C@@H](c3ccc(C#CC4CCCCC4)cc3)[C@H](CO)N12,1.09 ± 0.058
10,CC(C)[C@@H]1C/C=C/C[C@H](C)Oc2ccccc2C(=O)N(C)[C@@H](Cc2ccccc2)C(=O)N1.CC(C)[C@@H]1C/C=C\C[C@H](C)Oc2ccccc2C(=O)N(C)[C@@H](Cc2ccccc2)C(=O)N1,1.01 ± 0.047
11,COc1ccc(CNC(=O)C[C@H]2C[C@H]3c4cc(N(C)C)ccc4O[C@H]3[C@H](CO)O2)cc1,1.09 ± 0.077
12,CC(C)[C@@H]1COCc2cn(nn2)CCCCC(=O)N1,1.068 ± 0.0061
13,CCS(=O)(=O)N1C[C@@]2(C1)CN(Cc1cc(F)ccc1F)[C@H](CO)c1c2c2ccc(OC)cc2n1C,0.973 ± 0.029
14,C[C@@H]1CN([C@H](C)CO)C(=O)c2cccc(NC(=O)Nc3ccc(F)cc3)c2O[C@H]1CN(C)S(=O)(=O)c1ccc(Cl)cc1,0.92 ± 0.22
15,C[C@H](CO)N1C[C@H](C)[C@@H](CN(C)S(=O)(=O)c2ccc(Cl)cc2)OCCCC[C@H](C)Oc2ccc(NC(=O)Nc3ccc(C(F)(F)F)cc3)cc2C1=O,1.1 ± 0.11
16,Cc1ccccc1S(=O)(=O)N1[C@H](CO)[C@@H](c2ccc(C#CC3CC3)cc2)[C@@H]1C#N,0.916 ± 0.12
17,COCC(=O)N1C[C@]2(CN(C2)S(C)(=O)=O)c2c([C@H]1CO)n(C)c1cc(OC)ccc21,1.01 ± 0.093
18,CNC[C@@H]1OCc2cnnn2CCCC(=O)N([C@@H](C)CO)C[C@@H]1C,1.08 ± 0.07
19,O=C(C1CCC1)N1CC(=O)N2[C@H](CO)[C@@H](c3ccc(Br)cc3)[C@H]2C1,1.02 ± 0.017
20,COCC(=O)Nc1ccc2c(c1)C(=O)N(C)C[C@@H](OC)[C@@H](C)CN(C(=O)c1ccncc1)[C@H](C)CO2,1.0814 ± 0.00057
21,CCCNC(=O)Nc1ccc2c(c1)C(=O)N(C)C[C@@H](OC)[C@@H](C)CN(C)[C@@H](C)CO2,1.064 ± 0.01
22,C[C@H](CO)N1C[C@H](C)[C@@H](CN(C)Cc2ccc(Oc3ccccc3)cc2)Oc2ccc(N(C)C)cc2C1=O,0.959 ± 0.042
23,COc1cccc(NC(=O)N[C@H]2C=C[C@H](CC(=O)NCc3ccncn3)O[C@@H]2CO)c1,1.06 ± 0.045
24,Cc1ccc(S(=O)(=O)N[C@@H]2C=C[C@@H](CC(=O)NCc3ccc(Cl)c(Cl)c3)O[C@@H]2CO)cc1,0.916 ± 0.13

row,Structure (SMILES),viability index
1,COCC#Cc1ccc([C@@H]2[C@H]3CN(C(=O)CN4CCOCC4)CC(=O)N3[C@H]2CO)cc1,1.131 ± 0.0059
2,CN1C(=O)c2cc(NC(=O)c3cnccn3)ccc2OC[C@H]2O[C@@H](CC(=O)N[C@H]3CCN(Cc4ccccc4)C3)CC[C@H]21,0.9901 ± 0.0041
3,O=C(N[C@H]1CC[C@@H](CC(=O)N2CCOCC2)O[C@H]1CO)c1cccc(F)c1,0.979 ± 0.061
4,C[C@H](CO)N1C[C@H](C)[C@H](CN(C)C(=O)Nc2ccccc2)OCCCC[C@H](C)Oc2ccc(NC(=O)Nc3ccccc3)cc2C1=O,1.03 ± 0.019
5,CCC(=O)N1CC2(C1)[C@H](c1ccc(-c3ccccc3C)cc1)[C@H](CO)N2C(=O)CC,1.088 ± 0.0012
6,COc1ccc(-c2ccc([C@H]3[C@H](CO)N4C(=O)CN(C(=O)C5CC5)C[C@@H]34)cc2)cc1,0.9889 ± 0.0082
7,CC(C)C[C@H]1COCc2cn(nn2)CC[C@@H](Cc2ccc(Cl)cc2)C(=O)N1,0.955 ± 0.036
8,C[C@@H]1CN([C@H](C)CO)C(=O)c2cc(C#Cc3ccccc3)cnc2O[C@@H]1CN(C)C(=O)c1ccccc1,0.966 ± 0.057
9,O=C(c1ccccn1)N1CC2(C1)[C@H](c1ccccc1)[C@H](CO)N2Cc1ccc(F)cc1,1.12 ± 0.073
10,C[C@@H]1CCCCO[C@@H](CN(C)C(=O)Cc2ccccc2)[C@H](C)CN([C@@H](C)CO)C(=O)c2cc(NS(C)(=O)=O)ccc2O1,1.07 ± 0.024
11,COCC#Cc1ccc([C@H]2[C@@H](CO)N3C(=O)CN(C(=O)Nc4ccccc4F)C[C@@H]23)cc1,1.02 ± 0.044
12,CCS(=O)(=O)N1C[C@@]2(C1)CN(Cc1ccc3OCOc3c1)[C@H](CO)c1[nH]c3cc(OC)ccc3c21,1 ± 0.017
13,N#C[C@H]1N[C@@H](CO)[C@H]1c1ccc(C2=CCCC2)cc1,1.17 ± 0.03
14,CNC[C@@H]1OCCCC[C@H](C)Oc2ccc(NS(=O)(=O)c3ccc(F)cc3)cc2C(=O)N([C@H](C)CO)C[C@@H]1C,1.02 ± 0.15
15,COCC(=O)N1C[C@@]2(C1)CN([C@H](CO)c1c2c2ccc(OC)cc2n1C)S(C)(=O)=O,0.955 ± 0.12
16,COc1ccc2c3c([nH]c2c1)[C@H](CO)N(Cc1ccc(Cl)cc1)C[C@]31CN(C1)S(C)(=O)=O,0.931 ± 0.066
17,O=C(C1CC1)N1CC[C@@H]2[C@H](CO)Nc3ccc(Br)cc3[C@@H]21,1.1 ± 0.048
18,COc1ccc(S(=O)(=O)Nc2ccc3c(c2)C(=O)N([C@@H](C)CO)C[C@@H](C)[C@@H](CN(C)Cc2ccc(C(F)(F)F)cc2)OCCCC[C@H](C)O3)cc1,0.994 ± 0.023
19,O=C(CN1CCOCC1)N1[C@H](CO)[C@@H]2c3ccccc3NC[C@@H]21,1.01 ± 0.028
20,Cc1noc(C)c1NC(=O)N(C)C[C@@H]1OCCCC[C@H](C)Oc2ccc(NC(=O)Nc3ccc(C(F)(F)F)cc3)cc2C(=O)N([C@H](C)CO)C[C@@H]1C,1.05 ± 0.09
21,N#Cc1cccc(-c2ccc3c(c2)[C@H]2[C@H](CCN2S(=O)(=O)c2ccc(F)cc2)[C@H](CO)N3)c1,1.09 ± 0.017
22,COc1cccc(C#Cc2ccc([C@@H]3[C@H](C#N)N(C(=O)c4ccccn4)[C@H]3CO)cc2)c1,0.929 ± 0.051
23,CN1C(=O)c2cc(NC(=O)c3ccc4c(c3)OCO4)ccc2OC[C@H]2O[C@H](CC(=O)O)CC[C@H]21,1.16 ± 0.026
24,O=C(C1CC1)N1CC2(C1)[C@H](c1ccccc1)[C@H](CO)N2S(=O)(=O)c1ccccc1,1.02 ± 0.046

row,Structure (SMILES),viability index
1,C[C@H]1CN([C@@H](C)CO)C(=O)c2cccc(NC(=O)Nc3ccc(C(F)(F)F)cc3)c2O[C@@H]1CN(C)S(=O)(=O)c1cn(C)cn1,1.06 ± 0.045
2,COc1ccc2c3c([C@H](CO)N(C[C@]33CN(C3)C(=O)CC3CC3)C(=O)C3CCCC3)n(C)c2c1,0.897 ± 0.036
3,O=C(NCCc1ccncc1)[C@@H]1[C@@H](CO)[C@@H]2Cn3c(cccc3=O)[C@H]1N2Cc1ccccc1F,1.066 ± 0.0064
4,O=C(C[C@H]1CC[C@@H]2[C@H](COC[C@H](O)CN2C(=O)c2ccccc2F)O1)NCc1ccc(Cl)c(Cl)c1,1.08 ± 0.019
5,O=C(C[C@H]1CC[C@@H]2NC[C@@H](O)COC[C@H]2O1)NCCc1ccncc1,1 ± 0.067
6,O=C(c1ccccc1)N1C[C@@H]2[C@H](c3ccccc31)[C@H](CO)N2Cc1ccccn1,1.06 ± 0.026
7,CCS(=O)(=O)N1Cc2cc(C(=O)N(C)C)nc(-c3cccc(-c4ccc(C#N)cc4)c3)c2[C@H]1CCO,1.046 ± 0.005
8,C=C(C)C[C@@H]1CCn2nncc2COCCNC1=O,1.07 ± 0.019
9,C[C@H]1CN([C@@H](C)CO)C(=O)CCCn2nncc2CO[C@@H]1CN(C)S(=O)(=O)c1ccc2c(c1)OCCCO2,1.03 ± 0.036
10,O=C(C1CCOCC1)N1[C@H](CO)[C@@H](c2ccccc2)C12CN(CCC(F)(F)F)C2,1.13 ± 0.0078
11,CO[C@H]1CN(C)C(=O)c2cc(NC(=O)C3CCOCC3)ccc2OC[C@@H](C)NC[C@@H]1C,1.07 ± 0.017
12,O=C(C[C@@H]1C=C[C@H](NC(=O)Cc2cccnc2)[C@H](CO)O1)NCc1ccc2c(c1)OCO2,1.15 ± 0.087
13,CC(=O)N1[C@@H]2CN(C(=O)c3ccc(F)cc3)c3ccccc3[C@@H]2[C@@H]1CO,1.03 ± 0.079
14,O=C(CCN1CCCCC1)N[C@H]1CC[C@H](CCn2cc(-c3cccc(F)c3)nn2)O[C@@H]1CO,1.01 ± 0.059
15,COCC(=O)N1C[C@H]2[C@@H](c3ccccc31)[C@H](CO)N2C(=O)c1ccccc1F,0.951 ± 0.069
16,O=C(C1CCOCC1)N1CC(=O)N2[C@H](C1)[C@@H](c1ccc(C#CCc3ccccc3)cc1)[C@@H]2CO,1.06 ± 0.041
17,Cc1ccc(S(=O)(=O)N[C@@H]2C=C[C@H](CC(=O)NCc3ccc(Cl)c(Cl)c3)O[C@@H]2CO)cc1,0.927 ± 0.049
18,O=C(Nc1ccc(F)cc1)N1CC(=O)N2[C@H](CO)[C@@H](c3ccc(-c4cccc(F)c4)cc3)[C@@H]2C1,1.02 ± 0.066
19,COCC(=O)N1[C@H](C#N)[C@H](c2ccccc2-c2ccccc2F)[C@H]1CO,1.13 ± 0.14
20,COc1ccc2c3c([nH]c2c1)[C@H](CO)N(C[C@]31CCN(Cc2cccnc2)CC1)C(=O)c1ccc(F)cc1,1.019 ± 0.0041
21,COc1ccc2c3c([nH]c2c1)[C@H](CO)N(C[C@]31CN(C1)C(=O)Nc1cccc(F)c1)C(=O)NC1CCCC1,0.991 ± 0.026
22,COc1ccc(S(=O)(=O)N2C[C@@H](O)COC[C@H]3O[C@H](CC(=O)N[C@@H]4CCN(Cc5ccccc5)C4)CC[C@@H]32)cc1,1.08 ± 0.032
23,O=C(Cc1cccnc1)N1CC(=O)N2[C@H](CO)[C@@H](c3ccc(/C=C/c4ccccc4)cc3)[C@H]2C1,1.01 ± 0.019
24,COc1ccc2c3c([C@@H](CO)N(C[C@]33CCN(CC4CC4)CC3)C(=O)c3ccncc3)n(C)c2c1,0.937 ± 0.076
